Test results published in PubChem BioAssay (NCATS).
Several values for one entry are separate records, joined by “and”; a condition that tells them apart may be missing. Equal values may be shown once. This list was built around the results that the source calls inconclusive (neither active nor inactive); the mix of calls is not that of the screen. For some of these results: Potencies of inconclusive entries are doubtful fits and often do not repeat. Activity calls are given as the source filed them. Calls come from the whole dose curve; as a rule, active = well fitted curve in the direction sought with a large enough effect; inconclusive = small, poorly fitted or top-dose-only effect, or another doubt; inactive = no such curve, though single readings can be large; an effect the other way counts as inactive or inconclusive.

Assays:
[1] = test system: JEG-3; assay: Primary qHTS to identify gynecologic anti-cancer compounds using libraries of approved drugs and bioactive compounds (AID 1345084); conditions: Gynecologic cancer cell panel viability, ATPlite luminescence, 48 h; series mostly up to 57.5 µM; note: nearly all actives have a fitted effect of over 55% in size; note: potency is the fitted concentration of half-maximal effect
In short: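 Measured: luminescence after ATPlite addition (15 min, RT). Exposure: 48 h, 37 C, 5% CO2.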

[2] = qHTS of pediatric cancer cell lines to identify multiple opportunities for drug repurposing: Primary screen for BT-37 cells (AID 1347094); note: potency is the fitted concentration of half-maximal effect
In short: (§1)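 Viability was measured as metabolically active cells after 48 hours of treatment, read by CellTiter-Glo luminescence. Compounds were tested at multiple final concentrations, giving concentration-response curves.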

[3] = qHTS of pediatric cancer cell lines to identify multiple opportunities for drug repurposing: Primary screen for BT-12 cells (AID 1347101); note: nearly all actives have a fitted effect of over 25% in size; note: potency is the fitted concentration of half-maximal effect
In short: (§2)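 Cells (500-1,000/well) rested 5 h, then received compounds for 48 h; metabolically active cells were measured by CellTiter-Glo luminescence. Final concentrations spanned up to 46 µM (MIPE, 11-point) or 0.59 nM-46 µM (NPC, 8-point) in primary screens, 11-point in follow-ups.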

[4] = qHTS of pediatric cancer cell lines to identify multiple opportunities for drug repurposing: Primary screen for MG 63 (6-TG R) cells (AID 1347105); conditions: MG 63 (6-TG R) viability, CellTiter-Glo, 48 h; series mostly up to 46 µM; note: nearly all actives have a fitted effect of over 50% in size
In short: as §1

[5] = test system: Zika virus NS2B-NS3 protease; assay: Primary screen GU AMC qHTS for Zika virus inhibitors (AID 1347154); note: potency is the fitted concentration of half-maximal effect; nearly all actives have a fitted effect of over 70% in size
In short: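 Fluorogenic AMC-substrate cleavage by noncovalent NS2B-NS3 protease complex (25 nM, pH 8.0 Tris buffer with Tween 20) followed for 15 minutes at room temperature (~20% conversion). Percent inhibition from ex340/em450 signal change, fitted by 4-parameter Hill equation.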

[6] = Primary qHTS for small molecule stabilizers of the endoplasmic reticulum resident proteome: Secreted ER Calcium Modulated Protein (SERCaMP) assay (AID 1508630); conditions: SH-SY5Y GLuc-SERCaMP (Gaussia luciferase released on ER calcium loss) secretion, thapsigargin, luminescence; series mostly up to 38.4 µM; note: potency is the fitted concentration of half-maximal effect
In short: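 GLuc-SERCaMP-expressing SH-SY5Y cells, pretreated 16 h with compound, are challenged with thapsigargin to empty ER calcium stores; after 4 h, coelenterazine is added directly to the medium and luminescence is imaged.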

[7] = molecular target: Phospholipid hydroperoxide glutathione peroxidase GPX4 (Homo sapiens) (UniProt P36969); assay: Primary qHTS Assay for Inhibitors of Recombinant Selenoprotein Glutathione Peroxidase 4 (GPX4) (AID 1845192); note: nearly all actives have a fitted effect of over 65% in size; note: potency is the fitted concentration of half-maximal effect
UniProt P36969, sequence (P36969 whole entry, looked up): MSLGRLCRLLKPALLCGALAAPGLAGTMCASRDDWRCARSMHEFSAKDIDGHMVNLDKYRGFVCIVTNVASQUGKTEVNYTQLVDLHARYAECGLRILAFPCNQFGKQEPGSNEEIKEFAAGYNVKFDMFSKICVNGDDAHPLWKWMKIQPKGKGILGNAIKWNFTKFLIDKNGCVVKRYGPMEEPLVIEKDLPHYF
In short: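 NADPH consumption, followed by fluorescence at 340/450 nm between 0 and 15 min, reports GPX4 activity via coupled glutathione reductase (100 nM). Enzyme 200 nM was pre-exposed to compound 30 min; 0.5 mM cumene hydroperoxide and 1 mM GSH served as substrates.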

[8] = qHTS of pediatric cancer cell lines to identify multiple opportunities for drug repurposing: Primary screen for Rh30 cells (AID 1347107); note: nearly all actives have a fitted effect of over 75% in size
In short: as §2

[9] = Drug repurposing screens with cells derived from glioblastoma tumor samples (AID 1345199); conditions: GBM patient neurospheres viability, ATP luminescence, 48 h; Potency: tumour line A unless noted; series mostly up to 46 µM; note: potency is the fitted concentration of half-maximal effect; nearly all actives have a fitted effect of over 40% in size
In short: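 Four patient lines of CD133+ GBM neurospheres were screened at several concentrations; hits were retested in those lines plus three slower-growing GBM lines, using 48-hour treatment and ATP-based viability.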

[10] = test system: Zika virus NS2B-NS3 protease (linked construct); assay: Primary screen NINDS Rhodamine qHTS for Zika virus inhibitors (AID 1347160); note: nearly all actives have a fitted effect of over 55% in size; note: potency is the fitted concentration of half-maximal effect
In short: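 Purified linked NS2B-NS3 protease (NS2B hydrophilic domain joined to NS3 protease by flexible linker), 25 nM in 10 mM Tris-HCl pH 8.0, 0.01% Tween 20. Compounds titrated, 15 min preincubation at room temperature; 1.5 microM Rhodamine110 substrate, FITC fluorescence change over 15 min.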
Tags give direction and shape of the fitted curve.

C=C1C(OC2OC(CO)C(O)C(O)C2O)CC2C(C)(C)C(O)CCC2(C)C1CC/C(C)=C\COC(=O)CC(=O)O (stereo not given)
Potency [1]: inactive

OC(CCN1CCCCC1)(c1ccccc1)C1CCCCC1 (stereo not given)
Potency [2]: inconclusive: 13.8 µM [cytotoxic, partial curve, poor fit] | Potency [3]: inconclusive: 15.5 µM [cytotoxic, single point] | Potency [4]: inactive | Potency [5]: inconclusive: 36.1 µM [inhibitor, partial curve, poor fit] | Potency [6]: inconclusive: 10 µM [inhibitor, partial curve, poor fit] and inconclusive: 11.2 µM [inhibitor, single point]

C=CC(=O)N1CCCN(c2cc(NCCC(=O)O)nc(-c3ccccn3)n2)CC1
Potency [7]: inactive

O=C(O)C1(C(=O)O)CCC1.[NH2-].[NH2-].[Pt+2]
Potency [2]: inactive | Potency [3]: inactive | Potency [8]: inactive | Potency [5]: inconclusive: 14.1 µM [inhibitor, partial curve] | Potency [6]: inconclusive: 5.62 µM [inhibitor, partial curve, poor fit] | Potency [9]: inconclusive: 35.5 µM [inhibitor, partial curve, poor fit]

C=C(C)C(=O)O[C@H]1/C(C=O)=C\CC/C(CO)=C/[C@H]2OC(=O)C(=C)[C@@H]2[C@@H]1OC
Potency [10]: inconclusive: 28.2 µM [inhibitor, single point]

Cc1cccc(S(=O)(=O)N2CCC[C@@H]2CCN2CCC(C)CC2)c1
Potency [7]: inactive

COc1cc2ncc(-c3ccccc3)nc2cc1OC
Potency [5]: active: 6.31 µM and active: 2.38 µM | Potency [6]: inconclusive: 25.1 µM [inhibitor, partial curve, poor fit] and inconclusive: 31.6 µM [inhibitor, single point] | Potency [7]: active: 20.2 µM

CN1CCN(C(=O)CN[C@@H]2C[C@H]2c2ccc(OCc3ccccc3)cc2)CC1
Potency [1]: inactive

Cc1cc2sc(NC(=O)Cc3ccccc3)nc2cc1Cl
Potency [10]: inactive

CN1CCN(C2=Nc3ccccc3Oc3ccc(Cl)cc32)CC1
Potency [2]: inconclusive: 27.6 µM [cytotoxic, partial curve, poor fit] | Potency [3]: inconclusive: 24.6 µM [cytotoxic, single point] | Potency [6]: inconclusive: 28.2 µM [inhibitor, single point] and inconclusive: 31.6 µM [inhibitor, partial curve, poor fit]

C=C1/C(=C/C=C2\CCC[C@]3(C)[C@@H]([C@@H](C)OCCC(O)(CC)CC)CC[C@@H]23)C[C@@H](O)C[C@@H]1O
Potency [7]: inconclusive: 25.5 µM [inhibitor, partial curve, poor fit] | Potency [1]: inconclusive: 22.4 µM [rising, partial curve, poor fit]
